{"source": "paper PMC2566937", "about": "(Journal of medicinal chemistry, 2008)", "key": {"[1]": {"target": "T1, α2β3γ2 GABAA receptor (Rattus norvegicus, UniProt P23576+P63079)"}, "[2]": {"target": "α6β3γ2 GABAA receptor (Rattus norvegicus, UniProt P30191+P63079)", "conditions": "for Current induced by compound alone, % of maximal GABA-induced current: 1 mM compound"}, "[3]": {"target": "T1, α2β3γ2 GABAA receptor", "format": "cell-based", "conditions": "HEK293, read-out: Inhibition of GABA-induced current"}}, "note": "Marks after values point to notes of the source that are not given here."}
{"smiles": "Cc1nnc(C2CCNCC2)o1.Cl", "note": "[compound 19, 4-(5-Methyl-[1,3,4]oxadiazol-2-yl)-piperidine Hydrochloride]", "values": [{"measurement": "Current induced by compound alone, % of maximal GABA-induced current", "setting": "[1]; 1 mM compound", "result": "less than 10%"}]}
{"smiles": "Cl.Oc1nnc(C2CCNCC2)o1", "note": "[5a, 5-Piperidin-4-yl-3H-[1,3,4]oxadiazol-2-one Hydrochloride]", "values": [{"measurement": "Current induced by compound alone, % of maximal GABA-induced current", "setting": "[2]", "result": "less than 10%"}]}
{"smiles": "Cl.Sc1nnc(C2CCNCC2)o1", "note": "[6a, 5-Piperidin-4-yl-3H-[1,3,4]oxadiazol-2-thione Hydrochloride]", "values": [{"measurement": "inhibition at 1000 µM", "setting": "[3]", "result": "24 ± 9", "unit": "%"}, {"measurement": "Current induced by compound alone, % of maximal GABA-induced current", "setting": "[2]", "result": "less than 10%"}]}
{"smiles": "Cl.NCc1nnc(O)o1", "note": "[5d, 5-Aminomethyl-3H-[1,3,4]oxadiazol-2-one Hydrochloride]", "values": [{"measurement": "Hill coefficient (direct activation)", "setting": "[1]; value of an extrapolated dose-response curve", "result": "1.23 ^*"}, {"measurement": "Hill coefficient (direct activation)", "setting": "[2]", "result": "1.41 ± 0.14"}]}
